Measurements as given in paper PMC3787733 (Biochimica et Biophysica Acta, 2013).

Target: GST-tagged vimentin
Experiment: pull-down

binding result: binds
B1: His-tagged Rab7a wt (natural protein)
chain: not shown
